Each structure is given as a SMILES string. Whole data set: some 110,000 compounds, median “z-score” near -0.1, cut for the highest 2% near 2. The list shows a part of the results. Active and inactive are the calls of the source.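 Rule for the calls: active = z-score in the third read window above 3 or below -3; inactive = the rest.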 Residues, ends and D or L forms follow the SMILES beside them. *: point of attachment. Boc = CC(C)(C)OC(=O)*; Bn = c1ccc(C*)cc1

The test concerns the target Metabotropic glutamate receptor 8 (Rattus norvegicus) (UniProt P70579). The test is described as follows: rat mGluR8 modulators via GIRK flux, primary screen, cell-based, thallium flux, HTS (AID 488969). Particulars: HEK293 rat mGluR8, GIRK (G protein-gated inwardly rectifying potassium channel) thallium flux, FluoZin2; at 10 µM; stronger effect = higher value; submaximal glutamate (EC20) added with thallium.
UniProt P70579, sequence (P70579 whole entry, looked up): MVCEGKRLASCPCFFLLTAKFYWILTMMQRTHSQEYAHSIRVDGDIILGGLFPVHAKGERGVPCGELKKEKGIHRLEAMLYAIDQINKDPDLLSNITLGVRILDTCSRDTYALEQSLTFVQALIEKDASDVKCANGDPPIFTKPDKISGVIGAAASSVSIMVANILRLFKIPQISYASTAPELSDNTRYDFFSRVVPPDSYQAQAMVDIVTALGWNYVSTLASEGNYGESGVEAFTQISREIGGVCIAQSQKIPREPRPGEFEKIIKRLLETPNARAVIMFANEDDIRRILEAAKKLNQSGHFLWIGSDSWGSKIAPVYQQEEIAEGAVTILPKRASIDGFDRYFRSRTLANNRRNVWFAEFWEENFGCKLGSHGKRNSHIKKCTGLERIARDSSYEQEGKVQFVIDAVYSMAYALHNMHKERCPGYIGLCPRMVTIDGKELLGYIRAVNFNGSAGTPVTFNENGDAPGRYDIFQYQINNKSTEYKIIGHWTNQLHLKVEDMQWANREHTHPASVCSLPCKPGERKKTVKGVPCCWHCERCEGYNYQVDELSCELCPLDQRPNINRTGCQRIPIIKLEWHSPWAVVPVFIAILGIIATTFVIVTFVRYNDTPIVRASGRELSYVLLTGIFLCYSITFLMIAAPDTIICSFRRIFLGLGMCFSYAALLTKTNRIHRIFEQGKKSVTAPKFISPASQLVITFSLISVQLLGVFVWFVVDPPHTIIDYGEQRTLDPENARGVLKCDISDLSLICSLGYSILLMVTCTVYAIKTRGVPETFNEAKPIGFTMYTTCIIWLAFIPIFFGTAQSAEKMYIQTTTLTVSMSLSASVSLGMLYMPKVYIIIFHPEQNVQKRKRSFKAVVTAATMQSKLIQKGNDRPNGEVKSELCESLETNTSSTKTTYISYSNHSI
Take `Cc1ccc(-c2nc3ccccc3[nH]2)cc1NC(=S)NC(=O)c1ccccc1Br`: the z-score turned out to be 0.208.

In turn, `CCc1cccc2c(SC(C)C(=O)NCC3CCCO3)nc(-c3ccccc3)nc12` (stereo not given) displayed a z-score of -0.603.

For `Cc1cc(NC(=O)C2CC(=O)N(c3ccccc3)C2)no1` (stereo not given), the z-score is -0.238.

The compound `Cc1ccc(Oc2c(F)c(F)nc(N3CCCC3)c2F)cc1` returned a z-score of -0.0964.

In turn, `S=c1[nH]c2ccc(Cl)cc2[nH]1` came in with a z-score of 0.488.

Compound `Cc1cc(C)nc(Nc2n[nH]c(COc3cccc4ccccc34)n2)n1` showed a z-score of -0.325.

Turning to `COC(=O)c1ccc2c(=O)n(NC(=O)C(c3ccccc3)c3ccccc3)c(=S)[nH]c2c1`, the z-score was -0.337.

`CCN(CC)CCNc1nc(-c2ccccc2)nnc1C(F)(F)F` displayed a z-score of 0.135.

Regarding `COc1ccc(C)cc1NC(=O)C(=O)NNC(=O)c1ccco1`, the z-score is active: 4.89.

`CCOC(=O)/C(N)=C/c1ncc(C(F)(F)F)cc1Cl` gave a z-score of 0.0511.

Consider `COc1ccc(N2C(=O)CC(N3CCN(c4ccc(C(=O)c5cccnc5)cc4)CC3)C2=O)cc1` (stereo not given), for which the z-score is -0.186.

Compound `CCOC(=O)C1CCN(C(=O)CNC(=O)OC(C)(C)C)CC1` showed a z-score of -0.318.

`Cc1cccc(CSc2nc3c(cc2C#N)CCC3)c1` came in with a z-score of 0.361.

`CCOc1ccc2nc(NC(=O)CSc3ccccc3)sc2c1` gave a z-score of 0.162.

`COc1c(C(=O)N2CCCC2)ccc2ccccc12` registered a z-score of 0.264.

Take `Cc1ccnc(N/N=C/c2ccccc2)n1`: the z-score was -0.125.

With `Cc1ccc(OCCCn2ccnc2)cc1C`, the z-score was -0.141.

Consider `CCC(=O)OCc1c(C(F)(F)F)nn(C)c1Oc1cccc(C(F)(F)F)c1`, for which the z-score was -0.0999.

On to `CC1=NC(C)(C)Cc2ccccc21`, for which the z-score is 0.785.

For the compound `OCCCNC(c1ccccc1)c1ccc(O)cc1` (stereo not given), the z-score is 0.266.

On to `CC1(C)CC(c2csc(N)n2)CCO1` (stereo not given), for which the z-score turned out to be 0.945.

Turning to `CC(=O)C1=C(C)NC(SCC(N)=O)=C(C#N)C1c1cccnc1` (stereo not given), the z-score is -0.192.

With `CC1SCC(=O)N(CC(=O)Nc2ccc3c(c2)OCO3)C1=O` (stereo not given), the z-score was determined as 0.433.

Take `Cc1noc(C)c1C(=O)N1CC(C)OC(C)C1` (stereo not given): the z-score is -0.131.

`COc1ccc(-c2nn(CC(=O)N3CCCCC3)c(=O)c3ccccc23)cc1` showed a z-score of -0.347.

`Cc1ccc(C(=O)Nc2ccc(Cc3ccncc3)cc2)cc1[N+](=O)[O-]` gave a z-score of -0.494.

As to `Cc1ccc2c(c1)C(O)(CC(=O)c1ccc3c(c1)OCO3)C(=O)N2` (stereo not given), the z-score was -0.665.

Compound `CC(C)(C)c1ccc(-c2nc(-c3ccncc3)no2)cc1` had a z-score of -0.17.

`Cc1nnc(NC(=O)c2ccc(C)c(S(=O)(=O)N3CCCCCC3)c2)s1` displayed a z-score of -0.461.

As for `O=C(NC1CCCCC1)c1cc(-c2ccco2)on1`, the z-score was found to be 0.0983.

Compound `Cc1cccc(N2C(=O)CC(Sc3nc(C)cc(C)n3)C2=O)c1` (stereo not given) had a z-score of -0.715.

`CCOc1cc(/C=N/NC(N)=O)cc(Br)c1OCC(=O)Nc1cccc2ccccc12` gave a z-score of 0.109.

Compound `CCOc1cccc(/C(O)=C2/C(=O)C(=O)N(CCOC)C2c2ccc(C)o2)c1` (stereo not given) came in with a z-score of -0.479.

As to `Cc1nn(Cc2ccccc2Cl)c(C)c1C(=O)NCc1ccco1`, the z-score is -0.88.

For the compound `O=C(COC(=O)CCc1ccc(S(=O)(=O)N2CCOCC2)cc1)NC1CCCC1`, the z-score was -0.187.

Compound `COc1ccc(Cl)cc1NC(=O)C1CCCN(c2cc(C)nc3ncnn23)C1` (stereo not given) had a z-score of -0.277.

For `Nc1nc(SCC(=O)NCc2ccc(F)cc2)[nH]c(=O)c1NC(=O)c1ccc(Cl)cc1`, the z-score is -0.247.

`O=C(c1cc(-c2ccccc2)nc2ccccc12)N1CCCc2ccccc21` returned a z-score of 0.0801.

The compound `O=C(NNC1=C(C(=O)C(F)(F)F)CCC1)c1ccc(Cl)cc1` showed a z-score of 0.28.

For `CCOC(=O)C1(C(=O)OCC)CC1c1ccccc1` (stereo not given), the z-score was -0.0513.

`COCc1[nH]nc2c1C(c1ccc(OC)c(OC)c1)C(C#N)=C(N)O2` (stereo not given) showed a z-score of -0.328.

With `COc1ccc(C2CC(=O)c3cnc(Nc4cc(C)cc(C)c4)nc3C2)cc1` (stereo not given), the z-score was -0.184.

`COc1ccc(/C=N/NC(=O)Cc2csc(Nc3cccc(C(F)(F)F)c3)n2)c(OC)c1` showed a z-score of -0.206.

Take `O=C(/C=C/Nc1ccc(F)cc1)c1cccs1`: the z-score is -0.329.

Regarding `COc1ccc(NS(=O)(=O)c2ccc(SC)cc2)cc1`, the z-score was 0.376.

`CCCNC(=O)Cc1cc(=O)[nH]c(=O)[nH]1` displayed a z-score of -0.407.

Compound `O=C(NCC1COc2ccccc2O1)c1ccc(NC(=O)C(c2ccccc2)c2ccccc2)cc1` (stereo not given) yielded a z-score of -0.203.

For `CCCCn1c(=O)[nH]c(=O)c2c1nc(COc1ccc(C#N)cc1)n2CCC`, the z-score is -1.09.

As to `CC(=O)Nc1ccc(S(=O)(=O)NNC(=O)c2cccc3ccccc23)cc1`, the z-score was -0.252.

For the compound `O=C(O)CCS(=O)(=O)c1ccc(-c2ccccc2)cc1`, the z-score was -0.097.

Compound `Cc1ccc(-n2c(SCC(=O)NCc3ccco3)nc3sc4c(c3c2=O)CC(C)(C)SC4)cc1` gave a z-score of 0.136.

In the case of `COc1ccc(-n2cnnc2SCc2cnc(-c3ccccc3)s2)cc1`, the z-score was -0.166.

`Cn1nc(C(=O)OCCN2C(=O)c3ccccc3C2=O)c2ccccc2c1=O` showed a z-score of -0.305.

Take `CCCCNC(=O)CCn1c(=O)c2ccccc2n(Cc2ccc(F)cc2)c1=O`: the z-score was -0.407.

For the compound `COc1ccc(C2CC(C(F)(F)F)n3nc(C(=O)O)cc3N2)cc1OC` (stereo not given), the z-score is -0.555.

For `COC(=O)C1=NNC2(c3ccc(Cl)cc3)C(=O)N(c3ccccc3)C(=O)C12` (stereo not given), the z-score amounted to 0.137.

Regarding `COc1ccccc1NC(=O)/C(C#N)=C/c1c(C)nn(-c2ccc(F)cc2)c1Cl`, the z-score was -0.34.

Compound `COc1ccc(-c2c(C)n([O-])c3c([n+]2=O)CCCC3)c(OC)c1` had a z-score of -0.0698.

In turn, `NC(=O)c1cc(N2C(=O)C=CC2=O)ccc1Cl` returned a z-score of 0.151.

Regarding `O=C(OCc1cc2ccccc2[nH]c1=O)c1cccnc1`, the z-score turned out to be 0.0651.

`CCOC(=O)Cc1csc(NC(=O)CC)n1` returned a z-score of 1.77.

The compound `CC(=O)c1ccc(N2CCN(c3ncc(C(F)(F)F)cc3Cl)CC2)cc1` yielded a z-score of -0.556.

Regarding `CCOC(=O)c1cccc(NC(=O)CSc2nnc(-c3cccnc3)n2C)c1`, the z-score is active: -3.23.

Take `CCOC(=O)C1=C(C)OC(N)=C(C#N)C1c1ccc(OC)c(CSc2ccccn2)c1` (stereo not given): the z-score is -0.156.

Regarding `CCCCn1c(CN2CCN(c3cccc(Cl)c3)CC2)nc2c1c(=O)[nH]c(=O)n2C`, the z-score is 1.11.

Compound `COC(=O)c1cn(CC(=O)NCc2ccco2)c2ccccc12` yielded a z-score of -0.134.

Compound `COc1ccc(N2CSC3=C(C#N)C(c4cccs4)CC(=O)N3C2)cc1` (stereo not given) yielded a z-score of 0.592.

`COc1ccc(CCN(C(=O)C(F)(F)F)C(C(=O)NC2CCCC2)c2cccs2)cc1OC` (stereo not given): the z-score was -0.0777.

As to `O=C(O)c1cc2cc(Cl)ccc2oc1=O`, the z-score was -0.216.

For `CCC(C(=O)NCc1ccc(F)cc1)N(Cc1ccco1)C(=O)c1snc(C(N)=O)c1N` (stereo not given), the z-score came out at 0.681.

Compound `O=c1c2ccccc2c(-c2ccc(F)cc2)nn1-c1ccc(C(F)(F)F)cc1` returned a z-score of -0.239.

`O=C(Nc1cc(S(=O)(=O)N2CCCC2)ccc1Cl)C1=COCCO1` registered a z-score of 0.333.

`O=C(c1ccc(Cl)c([N+](=O)[O-])c1)N(c1ccccn1)c1ccccn1` displayed a z-score of -0.225.

As for `Cc1ccc(-c2c[n+](Cc3ccc(Cl)c(Cl)c3)c3n2CCC3)cc1`, the z-score was -0.00717.

In turn, `O=c1oc2cc(O)ccc2c2ccccc12` showed a z-score of -0.798.

As for `COc1ccc(C2C=C(c3ccc(C)cc3)Nc3ncnn32)cc1` (stereo not given), the z-score amounted to 0.648.

The compound `CC(C)(C)NC(=O)C12CC3CC(CC(Cl)(C3)C1)C2` displayed a z-score of 0.0491.

The compound `CCc1nnc(NCn2nc(C)cc2C)s1` came in with a z-score of -0.342.

Turning to `Cc1cccc(Sc2c([N+](=O)[O-])ncn2C)n1`, the z-score was -0.0664.

In the case of `CC(C)n1c(N2CCN(C(=O)Nc3ccc(F)cc3F)CC2)nc2ccccc21`, the z-score was -0.15.

In turn, `CC(C)(C)c1ccc(OCC(=O)N2CCN(C=O)CC2)cc1` yielded a z-score of -0.173.

With `CC1Cc2ccccc2N1C(=O)Cn1c(=O)cc(O)c2ccccc21` (stereo not given), the z-score is -0.102.

In the case of `COc1ccc(N2CN=C3SCC(=O)N3C2)cc1`, the z-score is -0.13.

Compound `NS(=O)(=O)c1ccc(NC(=S)NCc2ccccc2Cl)cc1` registered a z-score of 0.254.

In turn, `CC(C)(C)c1ccc(OCCNC(=S)NC(=O)c2cccnc2)cc1` came in with a z-score of 0.327.

In turn, `CCCCn1nc(C(=O)N[C@@H](CCSC)c2nc3ccccc3[nH]2)c2ccccc2c1=O` registered a z-score of -0.42.

`CCOc1ccc(NC(=O)CC2C(=O)N(C)C(=S)N2Cc2ccco2)cc1` (stereo not given): the z-score was determined as 0.0726.

With `CCOC(=O)c1cc2c(ccn2C)n1CC(=O)N1CCC(C)CC1`, the z-score worked out at 0.296.

As for `O=C(CN1CCN(c2ncc(C(F)(F)F)cc2Cl)CC1)Nc1ccc2c(c1)OCO2`, the z-score was -0.195.

`CCC(=O)Nc1nnc(SCC(=O)c2ccc3c(c2)Cc2ccccc2-3)s1` yielded a z-score of 0.387.

With `COc1ccc(OC)c(NC(=O)C2CC(=O)N(c3ccc(Br)cc3)C2)c1` (stereo not given), the z-score was active: 3.63.

As for `COCCN1CCc2c(C)nc3c(-c4ccc(OC)c(OC)c4)cnn3c21`, the z-score was -0.678.

With `CCCCNC(=O)CCNS(=O)(=O)c1ccc(C)cc1`, the z-score was determined as 1.22.

On to `CCOc1ccc2ncc(S(=O)(=O)c3ccc(C)cc3)c(N3CCC4(CC3)OCCO4)c2c1`, for which the z-score is -0.355.

Compound `CC(C)CC(NC(=O)C(NC(=O)C(Cc1ccc(OCc2ccccc2)cc1)NC(=O)OC(C)(C)C)C(C)C)C(N)=O` (stereo not drawn) (Boc-Tyr(Bn)-Val-Leu-NH2; configuration not given here) showed a z-score of -0.0426.

For `O=C(NCc1ccc(Cl)cc1)C(=O)NCC(c1ccco1)N1CCOCC1` (stereo not given), the z-score was -2.15.

For `CC(C)(C)c1ccc(C(=O)NCCC(=O)N2CCN(c3ncccn3)CC2)cc1`, the z-score was 0.155.

In turn, `COc1ccccc1/C=C/C=N/NC(=O)c1ccc(=O)n(C)c1` came in with a z-score of -0.306.

The compound `CCCn1cnc2cc(NCc3ccccn3)ccc21` came in with a z-score of -0.781.

Regarding `CC1(C(=O)N2CC3(CC(c4cccc([N+](=O)[O-])c4)=NO3)C[C@H]2C(=O)NCC(N)=O)CC1` (stereo not given in full), the z-score was determined as 0.0464.

In turn, `CN(C)CC(=O)c1c[nH]c2ccccc12` registered a z-score of -0.101.

`Brc1cccc(-c2nnc3n2CCC3)c1` came in with a z-score of -1.42.

`S=C(NCc1ccccn1)Nc1ccccc1Cl`: the z-score is -0.0105.

Take `CSc1nc(=S)n(Cc2ccccc2)c(C)c1C(C)=O`: the z-score is -0.182.

In turn, `CC1=C(C(=O)Nc2ccccc2C)C(c2ccc(C)o2)NC(=S)N1` (stereo not given) yielded a z-score of 0.728.

Compound `CCOc1cc(C2C(C(=O)OC(C)C)=C(C)N=C3SCCC(=O)N32)ccc1OC(C)=O` (stereo not given) came in with a z-score of 0.00207.

Consider `CCn1cc([N+](=O)[O-])c(C(=O)N2CCCC2)n1`, for which the z-score is -0.681.

For `CCn1nc(C)c(NS(=O)(=O)c2ccccc2)c1C`, the z-score is 0.21.

In the case of `COc1ccc(-c2nc3c(Br)c(N)c(Br)cc3o2)cc1`, the z-score is -0.19.

With `CCN(CC)S(=O)(=O)c1cc(NS(=O)(=O)c2cccc(Cl)c2)ccc1C`, the z-score is -0.898.

Values taken from PubChem BioAssay AID488969 (Vanderbilt High Throughput Screening Facility, 2010).
